Measurements from the BET-seq Pho4 binding data (Le et al. 2018).
This is one part of the list. Values were computed here from the reads of four pooled replicates and scatter widely.

biological target: T1, Pho4 (S. cerevisiae) (UniProt P07270); assay: relative binding free energy (BET-seq); higher = weaker binding; settings: reference: library average
T1 sequence: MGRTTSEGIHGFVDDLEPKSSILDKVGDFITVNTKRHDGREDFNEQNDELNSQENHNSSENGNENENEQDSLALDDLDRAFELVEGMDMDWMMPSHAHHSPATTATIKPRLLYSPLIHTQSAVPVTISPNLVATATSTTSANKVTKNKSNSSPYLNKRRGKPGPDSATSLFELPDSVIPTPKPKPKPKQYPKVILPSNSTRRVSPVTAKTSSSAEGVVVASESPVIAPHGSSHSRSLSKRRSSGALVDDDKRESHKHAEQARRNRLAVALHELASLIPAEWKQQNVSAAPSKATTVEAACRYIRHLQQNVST

Row | Sequence | relative binding free energy [kcal/mol]
1 | GGAAACACGTGAGTGT | 0.33
2 | AAGTCCACGTGTTAGT | 0.06
3 | GTAATCACGTGGGTAT | 0.09
4 | TATATCACGTGGTCAG | 0.09
5 | CTATTCACGTGGAGTG | 0.14
6 | GGAGGCACGTGCTGTA | -0.21
7 | GTTATCACGTGTAGGT | 0.24
8 | GGGGTCACGTGAGATG | 0.3
9 | GTTAACACGTGGCGGG | -0.06
10 | TAACTCACGTGTGGTT | 0.34
11 | CTTTTCACGTGGGTGA | 0.09
12 | GCTGTCACGTGGGGCA | -0.05
13 | CCTTGCACGTGGGGGA | -0.11
14 | GGGGTCACGTGAGAAG | 0.46
15 | CGGTACACGTGGCTGG | 0.02
16 | GCCGGCACGTGTGGGG | -0.06
17 | CGAGTCACGTGTGGCG | 0.03
18 | ATTTACACGTGTATTG | 0.13
19 | CTGGGCACGTGGGCGT | -0.2
20 | TCTTACACGTGGTCGG | 0
21 | TAGTTCACGTGGTCAT | 0.08

Row | Sequence | relative binding free energy [kcal/mol]
22 | TTTAGCACGTGGTCTG | -0.16
23 | GATTACACGTGTGAAG | 0.22
24 | AGTGCCACGTGGTTGC | -0.16
25 | CTGTCCACGTGTTGTG | 0.09
26 | GAGGTCACGTGTGAAA | 0.37
27 | TTCGGCACGTGCTGCG | -0.13
28 | GGAATCACGTGATTGA | 0.31
29 | CGTTCCACGTGGGATG | 0.05
30 | TTAGGCACGTGGACAT | -0.21
31 | TTTCTCACGTGCGGGA | 0.21
32 | AACTGCACGTGTTTGT | -0.08
33 | TTAGTCACGTGAAAGT | 0.28
34 | AGCGTCACGTGTGGTG | 0.11
35 | GGAGGCACGTGGTCGC | -0.16
36 | AGTCGCACGTGAGGGT | 0.16
37 | TGCAGCACGTGAGTTG | 0.16
38 | AGCAGCACGTGTATGT | -0.08
39 | GGCTGCACGTGTTGGA | -0.05
40 | TGACACACGTGTGAGG | 0.06
41 | TTATTCACGTGAGATG | 0.39
42 | CGATTCACGTGGGATT | 0.29

Row | Sequence | relative binding free energy [kcal/mol]
43 | GATGGCACGTGCTGAT | -0.06
44 | TGGGTCACGTGAAGGC | 0.24
45 | TGATTCACGTGAAAAG | 0.39
46 | AGAGGCACGTGTCAGG | -0.06
47 | CTTGTCACGTGTCGGG | 0.21
48 | GGGGGCACGTGTAGTT | 0.03
49 | TAAGACACGTGAATGT | 0.37
50 | TTTGCCACGTGAGGTC | 0.27
51 | AGTTGCACGTGATGTT | 0.21
52 | TATGTCACGTGGCTGG | 0.04
53 | GGGCTCACGTGAAGAT | 0.49
54 | CTTTTCACGTGGTTTC | 0.29
55 | TAGCTCACGTGGGGAA | 0.11
56 | AGGGACACGTGTGCTT | -0.04
57 | TAGGACACGTGGCTTT | -0.04
58 | TATTGCACGTGGAGGA | -0.08
59 | GTTGACACGTGTACTG | 0.06
60 | GGGGTCACGTGACATT | 0.34
61 | TTGACCACGTGATTTT | 0.27
62 | CATTGCACGTGGGTGC | -0.07
63 | GAAGGCACGTGGGCAT | -0.1
